From the supplement of paper PMC8728848
Some of the results follow.

Key:
Test in all cases: glycan array binding signal (z-score within array); higher = stronger binding
Settings in all cases: glycan notation: IUPAC condensed, linker removed
[1] = molecular target: Fuc(a1-2)[Gal(a1-3)]Gal(b1-4)GlcNAc(b1-2)Man(a1-3)[Fuc(a1-2)[Gal(a1-3)]Gal(b1-4)GlcNAc(b1-2)Man(a1-6)]Man(b1-4)GlcNAc(b1-4)[Fuc(a1-6)]GlcNAc
Summary of the method: (§1)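 Negative Z-scores can be read as non-binding. The Z-score is calculated within each array and then averaged across arrays of one protein sequence at different concentrations or buffers and across linkers. Arrays, 3228 in all, were curated from the Consortium for Functional Glycomics database and kept only where the protein sequence was available.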

[2] = molecular target: Fuc(a1-2)[Gal(a1-3)]Gal(b1-4)GlcNAc(b1-3)GalNAc
Summary of the method: as §1

[3] = molecular target: Fuc(a1-2)[Gal(a1-3)]Gal(b1-4)GlcNAc(b1-6)GalNAc
Summary of the method: as §1

[4] = molecular target: Fuc(a1-2)[Gal(a1-3)]Gal(b1-4)[Fuc(a1-3)]Glc
Summary of the method: as §1

[5] = molecular target: Fuc(a1-2)[Gal(a1-3)]Gal(b1-4)[Fuc(a1-3)]GlcNAc
Summary of the method: as §1

[6] = molecular target: Fuc(a1-2)[Gal(a1-3)]Gal(b1-4)[Fuc(a1-3)]GlcNAc(b1-3)GalNAc
Summary of the method: as §1

[7] = molecular target: Fuc(a1-2)[Gal(a1-4)]Gal(b1-4)GlcNAc
Summary of the method: as §1

[8] = molecular target: Fuc(a1-2)[GalNAc(a1-3)]Gal
Summary of the method: as §1

[9] = molecular target: Fuc(a1-2)[GalNAc(a1-3)]Gal(b1-3)GalNAc(a1-3)[Fuc(a1-2)]Gal(b1-4)GlcNAc
Summary of the method: as §1

[10] = molecular target: Fuc(a1-2)[GalNAc(a1-3)]Gal(b1-3)GalNAc(b1-3)Gal(a1-4)Gal(b1-4)Glc
Summary of the method: as §1

[11] = molecular target: Fuc(a1-2)[GalNAc(a1-3)]Gal(b1-3)GlcNAc
Summary of the method: as §1

[12] = molecular target: Fuc(a1-2)[GalNAc(a1-3)]Gal(b1-3)GlcNAc(b1-2)Man(a1-3)[Fuc(a1-2)[GalNAc(a1-3)]Gal(b1-3)GlcNAc(b1-2)Man(a1-6)]Man(b1-4)GlcNAc(b1-4)GlcNAc
Summary of the method: as §1

[13] = molecular target: Fuc(a1-2)[GalNAc(a1-3)]Gal(b1-3)GlcNAc(b1-2)Man(a1-3)[Fuc(a1-2)[GalNAc(a1-3)]Gal(b1-3)GlcNAc(b1-2)Man(a1-6)]Man(b1-4)GlcNAc(b1-4)[Fuc(a1-6)]GlcNAc
Summary of the method: as §1

[14] = molecular target: Fuc(a1-2)[GalNAc(a1-3)]Gal(b1-3)GlcNAc(b1-3)GalNAc
Summary of the method: as §1

[15] = molecular target: Fuc(a1-2)[GalNAc(a1-3)]Gal(b1-3)GlcNAc(b1-6)GalNAc
Summary of the method: as §1

[16] = molecular target: Fuc(a1-2)[GalNAc(a1-3)]Gal(b1-4)Glc
Summary of the method: as §1

[17] = molecular target: Fuc(a1-2)[GalNAc(a1-3)]Gal(b1-4)GlcNAc
Summary of the method: as §1

[18] = molecular target: Fuc(a1-2)[GalNAc(a1-3)]Gal(b1-4)GlcNAc(b1-2)Man
Summary of the method: as §1

[19] = molecular target: Fuc(a1-2)[GalNAc(a1-3)]Gal(b1-4)GlcNAc(b1-2)Man(a1-3)[Fuc(a1-2)[GalNAc(a1-3)]Gal(b1-4)GlcNAc(b1-2)Man(a1-6)]Man(b1-4)GlcNAc(b1-4)GlcNAc
Summary of the method: as §1

[20] = molecular target: Fuc(a1-2)[GalNAc(a1-3)]Gal(b1-4)GlcNAc(b1-2)Man(a1-3)[Fuc(a1-2)[GalNAc(a1-3)]Gal(b1-4)GlcNAc(b1-2)Man(a1-6)]Man(b1-4)GlcNAc(b1-4)[Fuc(a1-6)]GlcNAc
Summary of the method: as §1

[21] = molecular target: Fuc(a1-2)[GalNAc(a1-3)]Gal(b1-4)GlcNAc(b1-3)Gal(b1-4)GlcNAc
Summary of the method: as §1

[22] = molecular target: Fuc(a1-2)[GalNAc(a1-3)]Gal(b1-4)GlcNAc(b1-3)Gal(b1-4)GlcNAc(b1-3)Gal(b1-4)GlcNAc
Summary of the method: as §1

[23] = molecular target: Fuc(a1-2)[GalNAc(a1-3)]Gal(b1-4)GlcNAc(b1-3)GalNAc
Summary of the method: as §1

[24] = molecular target: Fuc(a1-2)[GalNAc(a1-3)]Gal(b1-4)GlcNAc(b1-3)[Fuc(a1-2)[GalNAc(a1-3)]Gal(b1-4)GlcNAc(b1-6)]GalNAc
Summary of the method: as §1

[25] = molecular target: Fuc(a1-2)[GalNAc(a1-3)]Gal(b1-4)GlcNAc(b1-6)GalNAc
Summary of the method: as §1

[26] = molecular target: Fuc(a1-2)[GalNAc(a1-3)]Gal(b1-4)[Fuc(a1-3)]GlcNAc
Summary of the method: as §1

[27] = molecular target: Fuc(a1-2)[GalNAc(a1-3)]Gal(b1-4)[Fuc(a1-3)]GlcNAc(b1-3)GalNAc
Summary of the method: as §1

[28] = molecular target: Fuc(a1-2)[GalNAc(a1-4)]Gal(b1-4)GlcNAc
Summary of the method: as §1

[29] = molecular target: Fuc(a1-2)[GalNAc(b1-3)]Gal
Summary of the method: as §1

[30] = molecular target: Fuc(a1-3)GlcNAc
Summary of the method: as §1

[31] = molecular target: Fuc(a1-3)[Gal(b1-4)]Glc6S
Summary of the method: as §1

[32] = molecular target: Fuc(a1-3)[Gal(b1-4)]GlcNAc
Summary of the method: as §1

[33] = molecular target: Fuc(a1-3)[Gal(b1-4)]GlcNAc(b1-2)Man
Summary of the method: as §1

[34] = molecular target: Fuc(a1-3)[Gal(b1-4)]GlcNAc(b1-2)Man(a1-3)[Fuc(a1-3)[Gal(b1-4)]GlcNAc(b1-2)Man(a1-6)]Man(b1-4)GlcNAc(b1-4)GlcNAc
Summary of the method: as §1

[35] = molecular target: Fuc(a1-3)[Gal(b1-4)]GlcNAc(b1-2)Man(a1-3)[Fuc(a1-3)[Gal(b1-4)]GlcNAc(b1-2)Man(a1-6)]Man(b1-4)GlcNAc(b1-4)[Fuc(a1-6)]GlcNAc
Summary of the method: as §1

[36] = molecular target: Fuc(a1-3)[Gal(b1-4)]GlcNAc(b1-3)Gal(b1-3)[Fuc(a1-4)]GlcNAc
Summary of the method: as §1

[37] = molecular target: Fuc(a1-3)[Gal(b1-4)]GlcNAc(b1-3)Gal(b1-4)[Fuc(a1-3)]GlcNAc
Summary of the method: as §1

B1: CaSRK1 (Capsicum annuum) (protein)
chain: MALCKIFPFAFILLSCSCYLISGQRFDYPTANLSTTWINSVSAPHSIDYTDGSRIRAILLRGTFGPRYACGFYCNGNCESYLFAIFIVQTNSASQITSPAIGFPQVVWSANRNNPVKINSTLQLTAEGDLVLRDADGTLAWSTNTAGKSVAGLSLTDEGNLALFDSKNATVWQSFDHPTDALVPGQKLVPGMKLTASVSRTNWTAGGLFALSAIDNGLVAFVESNPPQKYFEASVGGSNTSGGSNYVKYLNGSLTLFTHSADTTELILISITPASSAQYMKLESNGHLKVYEWTSRGWREVDDLLTGFRGECNYPTVCGRYGICTMGQCSCPTSSSSRTYFRPIDVRRPSLGCSEVTKLTCQNTKKHSPLEVEDVDYFAFKAGISDTDLNTCKRACLEKCSCKAAFFRSGLNSSRTRGDCYLPTEIFSIMNNEKDRTRYDSVAFIKVQV
[1]
  glycan array binding signal (z-score): -0.368
[2]
  glycan array binding signal (z-score): -0.527
[3]
  glycan array binding signal (z-score): 0.559
[4]
  glycan array binding signal (z-score): -0.521
[5]
  glycan array binding signal (z-score): 0.067
[6]
  glycan array binding signal (z-score): -0.456
[7]
  glycan array binding signal (z-score): -0.109
[8]
  glycan array binding signal (z-score): -0.526
[9]
  glycan array binding signal (z-score): -0.516
[10]
  glycan array binding signal (z-score): -0.167
[11]
  glycan array binding signal (z-score): -0.186
[12]
  glycan array binding signal (z-score): -0.402
[13]
  glycan array binding signal (z-score): -0.47
[14]
  glycan array binding signal (z-score): 0.113
[15]
  glycan array binding signal (z-score): -0.35
[16]
  glycan array binding signal (z-score): -0.539
[17]
  glycan array binding signal (z-score): -0.513
[18]
  glycan array binding signal (z-score): -0.384
[19]
  glycan array binding signal (z-score): -0.587
[20]
  glycan array binding signal (z-score): 0.69
[21]
  glycan array binding signal (z-score): 0.062
[22]
  glycan array binding signal (z-score): -0.06
[23]
  glycan array binding signal (z-score): -0.359
[24]
  glycan array binding signal (z-score): -0.364
[25]
  glycan array binding signal (z-score): -0.059
[26]
  glycan array binding signal (z-score): 0.434
[27]
  glycan array binding signal (z-score): -0.424
[28]
  glycan array binding signal (z-score): -0.584
[29]
  glycan array binding signal (z-score): -0.528
[30]
  glycan array binding signal (z-score): -0.237
[31]
  glycan array binding signal (z-score): -0.056
[32]
  glycan array binding signal (z-score): -0.091
[33]
  glycan array binding signal (z-score): 0.514
[34]
  glycan array binding signal (z-score): 0.203
[35]
  glycan array binding signal (z-score): -0.545
[36]
  glycan array binding signal (z-score): -0.428
[37]
  glycan array binding signal (z-score): 0.387
